In the supplement of paper PMC4604168 (melanoma cell lines) one finds cell count data, which are given here for 15 molecules.

The other results are listed elsewhere or left out. Repeats are few or missing, and single values can be far off.
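Also: cells treated in 1,536-well plates, then fixed and DAPI-stained, with nuclei counted from automated high-throughput microscope images.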

The test system of this assay is G361. Briefly: cell count relative to DMSO control; melanoma cells; higher = more viable cells. The settings on record: library dose: standard library concentration; 72 h.
Molecule `Nc1ccn([C@@H]2O[C@H](CO)[C@@H](O)C2(F)F)c(=O)n1` [gemcitabine] + O=C(O)C(=O)Nc1sc2c(c1C(=O)O)CCNC2 [TCS401] (first compound 0.002 µM, partner dose 8.33333 µM) showed a cell count of 42%.

Molecule `CC(=O)O[C@@]12CO[C@@H]1C[C@H](O)[C@@]1(C)C(=O)[C@H](O)C3=C(C)[C@@H](OC(=O)[C@H](O)[C@@H](NC(=O)OC(C)(C)C)c4ccccc4)C[C@@](O)([C@@H](OC(=O)c4ccccc4)[C@H]21)C3(C)C` [Docetaxel] + C[C@]1(c2nc3c(C(N)=O)cccc3[nH]2)CCCN1 [Veliparib] (first compound 0.0005 µM, partner dose 7 µM) yielded a cell count of 10.5%.

`CC(=O)c1c(C)c2cnc(Nc3ccc(N4CCNCC4)cn3)nc2n(C2CCCC2)c1=O` [palbociclib] + N#Cc1c(O)c2c(-c3ccc(-c4ccccc4O)cc3)csc2[nH]c1=O [A769662] (first compound 0.2 µM, partner dose 10 µM) came in with a cell count of 61.5%.

In turn, `Nc1ccn([C@@H]2O[C@H](CO)[C@@H](O)C2(F)F)c(=O)n1` [gemcitabine] + C=CCNC1=C2C[C@@H](C)C[C@H](OC)[C@H](O)[C@@H](C)/C=C(\C)[C@H](OC(N)=O)[C@@H](OC)/C=C\C=C(/C)C(=O)NC(=CC1=O)C2=O [Tanespimycin] (first compound 0.002 µM, partner dose 0.01 µM) displayed a cell count of 33.6%.

In turn, `CC(=O)c1c(C)c2cnc(Nc3ccc(N4CCNCC4)cn3)nc2n(C2CCCC2)c1=O` [palbociclib] + O=C(Nc1cccc(Cl)c1)Nc1ncc(CCNc2ncnc3ccsc23)s1 [SNS314] (first compound 0.2 µM, partner dose 0.004 µM) had a cell count of 58.9%.

As to `CC(=O)O[C@@]12CO[C@@H]1C[C@H](O)[C@@]1(C)C(=O)[C@H](O)C3=C(C)[C@@H](OC(=O)[C@H](O)[C@@H](NC(=O)OC(C)(C)C)c4ccccc4)C[C@@](O)([C@@H](OC(=O)c4ccccc4)[C@H]21)C3(C)C` [Docetaxel] + c1cc(-c2cnn3cc(-c4ccc(OCCN5CCCCC5)cc4)cnc23)ccn1 [Dorsomorphin] (first compound 0.0005 µM, partner dose 2 µM), the cell count was 15.8%.

As to `Nc1ncn([C@H]2C[C@H](O)[C@@H](CO)O2)c(=O)n1` [decitabine] + COC(=O)c1sccc1S(=O)(=O)Nc1ccc(Nc2ccccc2)cc1OC [GSK0660] (first compound 0.5 µM, partner dose 5 µM), the cell count was 108%.

In turn, `CO[C@H]1C[C@@H]2CC[C@@H](C)[C@@](O)(O2)C(=O)C(=O)N2CCCC[C@H]2C(=O)O[C@H]([C@H](C)C[C@@H]2CC[C@@H](OCCO)[C@H](OC)C2)CC(=O)[C@H](C)/C=C(\C)[C@@H](O)[C@@H](OC)C(=O)[C@H](C)C[C@H](C)/C=C/C=C/C=C/1C` [everolimus] + Clc1ccc(Nc2nnc(Cc3ccncc3)c3ccccc23)cc1 [vatalanib] (first compound 0.1 µM, partner dose 10 µM) gave a cell count of 62.3%.

The molecule `Nc1ccn([C@@H]2O[C@H](CO)[C@@H](O)C2(F)F)c(=O)n1` [gemcitabine] + OCc1c[nH]c2ccccc12 [Indole-3-carbinol] (first compound 0.002 µM, partner dose 4 µM) came in with a cell count of 40.9%.

In the case of `Nc1ncn([C@H]2C[C@H](O)[C@@H](CO)O2)c(=O)n1` [decitabine] + O=C(Nc1ccccc1)c1cc([N+](=O)[O-])ccc1Cl [GW9662] (first compound 0.5 µM, partner dose 10 µM), the cell count came out at 66.1%.

`Nc1ccn([C@@H]2O[C@H](CO)[C@@H](O)C2(F)F)c(=O)n1` [gemcitabine] + NC(=O)Nc1cc(-c2cccc(F)c2)sc1C(=O)N[C@H]1CCCNC1 [AZD7762] (first compound 0.002 µM, partner dose 0.1 µM) registered a cell count of 12.2%.

For `Nc1nc(F)nc2c1ncn2[C@@H]1O[C@H](CO)[C@@H](O)[C@@H]1O` [fludarabine] + O=c1cc(-c2cccc3c2Sc2ccccc2S3)oc(N2CCOCC2)c1 [KU55933] (first compound 1 µM, partner dose 5 µM), the cell count is 65.7%.

Consider `CC(=O)O[C@@]12CO[C@@H]1C[C@H](O)[C@@]1(C)C(=O)[C@H](O)C3=C(C)[C@@H](OC(=O)[C@H](O)[C@@H](NC(=O)OC(C)(C)C)c4ccccc4)C[C@@](O)([C@@H](OC(=O)c4ccccc4)[C@H]21)C3(C)C` [Docetaxel] + CO[C@H]1C[C@@H]2CC[C@@H](C)[C@@](O)(O2)C(=O)C(=O)N2CCCC[C@H]2C(=O)O[C@H]([C@H](C)C[C@@H]2CC[C@@H](OCCO)[C@H](OC)C2)CC(=O)[C@H](C)/C=C(\C)[C@@H](O)[C@@H](OC)C(=O)[C@H](C)C[C@H](C)/C=C/C=C/C=C/1C [everolimus] (first compound 0.0005 µM, partner dose 0.1 µM), for which the cell count was 12.6%.

Take `CC(=O)O[C@@]12CO[C@@H]1C[C@H](O)[C@@]1(C)C(=O)[C@H](O)C3=C(C)[C@@H](OC(=O)[C@H](O)[C@@H](NC(=O)OC(C)(C)C)c4ccccc4)C[C@@](O)([C@@H](OC(=O)c4ccccc4)[C@H]21)C3(C)C` [Docetaxel] + O=C(CCCCCCC(=O)Nc1ccccc1)NO [vorinostat] (first compound 0.0005 µM, partner dose 0.4 µM): the cell count is 12.5%.

`Nc1ccn([C@@H]2O[C@H](CO)[C@@H](O)C2(F)F)c(=O)n1` [gemcitabine] + c1cc(-c2cnn3cc(-c4ccc(OCCN5CCCCC5)cc4)cnc23)ccn1 [Dorsomorphin] (first compound 0.002 µM, partner dose 2 µM): the cell count turned out to be 45.6%.
